# In all, about 310,000 compounds went through this assay and about 14,000 (4.5%) showed an effect of 50% or more. Effects have a minus sign here. This is one part of the list.
# Molecular target: human ether-à-go-go-related gene (hERG) potassium channel (human, UniProt Q12809)
# Experiment: primary screen, population patch clamp on CHO cells stably expressing hERG
# 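Note: peak tail current of the secondary pulse compared with the same well before compound.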
# Sequence of human ether-à-go-go-related gene (hERG) potassium channel (Q12809 whole entry, looked up): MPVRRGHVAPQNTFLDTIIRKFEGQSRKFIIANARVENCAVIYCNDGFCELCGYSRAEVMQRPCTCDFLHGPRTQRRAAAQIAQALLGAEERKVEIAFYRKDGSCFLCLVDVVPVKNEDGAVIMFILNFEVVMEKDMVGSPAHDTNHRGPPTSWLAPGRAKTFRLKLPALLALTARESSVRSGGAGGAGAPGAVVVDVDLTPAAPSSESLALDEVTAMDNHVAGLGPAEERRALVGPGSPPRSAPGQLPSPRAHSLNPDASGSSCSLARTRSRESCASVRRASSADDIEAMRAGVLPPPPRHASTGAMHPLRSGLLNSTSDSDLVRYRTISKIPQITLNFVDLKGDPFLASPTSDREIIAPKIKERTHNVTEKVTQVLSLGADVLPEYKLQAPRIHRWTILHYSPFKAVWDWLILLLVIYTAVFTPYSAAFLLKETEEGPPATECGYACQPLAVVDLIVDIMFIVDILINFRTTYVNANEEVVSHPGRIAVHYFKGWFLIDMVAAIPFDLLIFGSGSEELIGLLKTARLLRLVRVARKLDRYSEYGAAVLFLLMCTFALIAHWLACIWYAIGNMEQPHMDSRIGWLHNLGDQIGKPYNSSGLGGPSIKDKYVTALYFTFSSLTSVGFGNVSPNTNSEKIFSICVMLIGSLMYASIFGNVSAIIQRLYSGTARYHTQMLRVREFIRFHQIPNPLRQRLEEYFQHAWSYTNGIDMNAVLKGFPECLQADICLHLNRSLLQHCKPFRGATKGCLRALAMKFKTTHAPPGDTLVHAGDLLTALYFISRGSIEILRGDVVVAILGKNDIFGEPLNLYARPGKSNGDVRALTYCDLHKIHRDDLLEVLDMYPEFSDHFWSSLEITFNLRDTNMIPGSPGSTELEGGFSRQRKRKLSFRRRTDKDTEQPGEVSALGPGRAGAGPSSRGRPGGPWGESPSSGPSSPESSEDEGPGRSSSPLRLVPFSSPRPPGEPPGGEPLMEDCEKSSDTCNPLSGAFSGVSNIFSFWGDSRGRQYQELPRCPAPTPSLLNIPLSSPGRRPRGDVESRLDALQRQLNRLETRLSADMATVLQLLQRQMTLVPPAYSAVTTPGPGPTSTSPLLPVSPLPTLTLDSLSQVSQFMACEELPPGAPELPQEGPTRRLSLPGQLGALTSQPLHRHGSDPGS
row,SMILES,"hERG current change (%, negative = inhibition) at 10uM [%]"
1,S=c1nc(-c2ccccc2)n(CCCN2CCOCC2)c2c1CCCC2,-13.7
2,Clc1ccc(OCCn2cnc(Cl)c2Cl)cc1,-2.74
3,CCCCNC(=S)Nc1cccc(C(C)=O)c1,9.06
4,S=C(NCCc1ccccc1)N1CCCC1,9.47
5,O=C(/C=C/c1ccccc1[N+](=O)[O-])N1CCN(c2ccc(F)cc2)CC1,-56.5
6,O=C1OCCC1Sc1nnnn1-c1ccccc1 (stereo not drawn),-5.14
7,S=C(NC1CCCCC1)N1CCOCC1,7.05
8,c1ccc2c(c1)ncn2Cc1nnc2sc(-c3ccncc3)nn12,-25.4
9,CCN(CC)S(=O)(=O)c1ccc(S(=O)(=O)N2CCCC2C(=O)O)cc1 (stereo not drawn),-0.323
10,O=S(=O)(NCc1ccccc1Cl)c1cnc[nH]1,21.4
11,CC(C)[C@H](NC(=O)NCCC1=CCCCC1)C(=O)O,10.6
12,Cn1c(=O)[nH]c(=O)c2c1nc(N1CCOCC1)n2CCN1CCOCC1,30.2
13,O=C(Nc1nccs1)c1cc(S(=O)(=O)N2CCOCC2)ccc1Cl,-12.9
14,COc1cccc(NC(=O)Nn2cnnc2)c1,24.1
15,CC(C(=O)N1CC2(C)CC1CC(C)(C)C2)N1C(=O)c2ccccc2C1=O (stereo not drawn),-12.6
16,Cc1cc(Nc2ccc(F)cc2)n2nc(C)nc2n1,-28.7
17,O=C1CCCC(=O)N1c1ccc(N2CCN(c3ccccc3)CC2)c([N+](=O)[O-])c1,14.2
18,COc1ccccc1N1CCN(C(=O)/C=C/c2ccc3c(c2)OCO3)CC1,-10.5
19,CCN(CC)C(=O)c1c([N+](=O)[O-])c(C(C)(C)C)nn1C,17.3
20,CCc1ccc(/C=N/NC(=O)c2ccccn2)cc1,-5.14
21,CC(=O)c1ccc(Oc2cc(C)nc(N3CCOCC3)n2)cc1,-13.3
22,O=C(N1CCN(CCO)CC1)N1c2ccccc2C=Cc2ccccc21,13.7
23,CC(C)(C)c1csc(N/N=C/c2ccc(O)cc2)n1,-0.632

row,SMILES,"hERG current change (%, negative = inhibition) at 10uM [%]"
1,CCCN=C1NC(=O)C(CC(=O)NCCc2ccc(OC)c(OC)c2)S1 (stereo not drawn),2.82
2,Nc1ccccc1C(=O)OCc1ccc([N+](=O)[O-])cc1,7.98
3,COc1ccc(C(=O)NNC(=O)c2ccccn2)cc1,5.21
4,Cn1c(C(=O)NCC2CCCO2)cc2c(=O)[nH]c3ccccc3c21 (stereo not drawn),8.03
5,Cc1ncc([N+](=O)[O-])n1CC(=O)NCc1ccccc1,16
6,Cn1cc(C(=O)OCC(=O)Nc2ccccc2)c2ccccc21,-8.39
7,O=C(COc1ccc(Cl)cc1)OCC(=O)N1CCCCCC1,12.6
8,Cc1c(Cl)c([N+](=O)[O-])nn1CCCC(=O)Nc1cc(Cl)ccc1Cl,-12.2
9,Cc1ccc(S(=O)(=O)N2CCOCC2)cc1C(=O)Nc1ccc(-c2cn3ccsc3n2)cc1,-9.94
10,O=C(CCC1CCCN(C(=O)Cc2cccc(F)c2)C1)N1CCN(c2ccccn2)CC1 (stereo not drawn),-21.8
11,COc1cc(OC)c(N2CC(C(=O)NCCC3=CCCCC3)CC2=O)cc1Cl (stereo not drawn),-7.23
12,O=C(N/N=C\c1ccc([N+](=O)[O-])o1)C1COc2ccccc2O1 (stereo not drawn),-67.4
13,O=c1nc(N2CCCC2)nc(N2CCCC2)[nH]1,11.2
14,CN1C(=O)CSC1=Nc1ccc(Br)cc1,9.52
15,CCCCn1c(NC(=O)c2ccccc2)nc2ccccc21,-4.34
16,Cn1c(SCc2ccc(Br)cc2)nnc1-c1cccs1,-38.2
17,O=C(NC1CC1)C1=C[C@H](C2CCCCC2)C[C@H](OCc2ccc(CO)cc2)O1,-17.2
18,CC(C)(C)SC(=O)C[C@@H]1NS(=O)(=O)OC2CCCCC21 (stereo partly drawn),2.1
19,CCCCn1cnc2c(oc3ccccc32)c1=O,-2.95
20,CC(NS(=O)(=O)c1cccc(Cl)c1)C(=O)N(C)C1CCN(C)CC1 (stereo not drawn),11.4
21,Cc1cc(C)c2c3c(sc2n1)C(=O)N(c1ccccc1C)CC(=O)N3,14.6
22,COC(=O)CN1C2(C#N)CCCCC2CC2CCCCC21C#N (stereo not drawn),-3.35
23,O=C(CN1CC=C(c2ccccc2)CC1)Nc1cc(Cl)ccc1Cl,-12.8

row,SMILES,"hERG current change (%, negative = inhibition) at 10uM [%]"
1,S=C(NCCc1ccccc1)Nc1ccc(Br)cn1,3.98
2,Cc1cc(=O)[nH]c(SCC(=O)NCCc2ccccc2)n1,-1.63
3,CC(C)NC(=S)N1CCN(C/C=C/c2ccccc2)CC1,-15.5
4,COc1ccc(Cn2c(=O)[nH]c3cc(C(=O)Nc4ccccc4C)ccc32)cc1,2.66
5,N#CCCn1c(SCC(=O)NCc2ccco2)nc2ccccc21,-3.37
6,O=C(NC(=S)Nc1cccc(Cl)c1Cl)C1CC1,15.5
7,O=C(NNS(=O)(=O)c1ccccc1F)c1cc(-c2ccccc2)n[nH]1,-4.7
8,CCC(c1nnnn1C(C)(C)C)N1CCN(c2cc(Cl)ccc2C)CC1 (stereo not drawn),-29.6
9,COc1cccc(-c2ccc(C#N)c(SCC(=O)NCc3ccco3)n2)c1,2.93
10,CC(C)CN1CCN(Cc2ccc(Oc3ncccn3)cc2)CC1CCO (stereo not drawn),-28.5
11,Cc1cc(C)cc(OCc2nnc(N)s2)c1,3.16
12,COc1cc(OC)c(OC)cc1CN1CCN(Cc2ccc(SC)cc2)CC1.O=C(O)C(=O)O,-61.5
13,CCc1ccc(NC(=O)c2noc(C(C)C)c2[N+](=O)[O-])cc1,6.27
14,COc1ccc(-n2nc(C(=O)NCC(=O)N3CCC4(CC3)OCCO4)c3ccccc3c2=O)cc1Cl,-20.3
15,COc1ccc(NC(=O)C2C3CCC(O3)C2C(=O)O)c(C)c1 (stereo not drawn),4.68
16,O=C(O)c1c(NC(=O)c2cccc3ccccc23)sc2c1CCC2,5.11
17,CCOC(=O)N1CCN(c2c(N3CCN(c4cccc(C(F)(F)F)c4)CC3)c(=O)c2=O)CC1,-46.4
18,O=C(Cn1c2ccccc2c(=O)c2ccccc21)N/N=C/c1ccc(N2CCCC2)c([N+](=O)[O-])c1,5.73
19,O=[N+]([O-])c1ccccc1/C=C/C=N/Nc1ccc(S(=O)(=O)Nc2ccc(Cl)cc2)cc1[N+](=O)[O-],20.8
20,O=C(O)c1ccc(/C=N/NC(=S)NCc2ccccc2)cc1,22.9
21,COCCN1C=C2C(=O)C(C)(OC(=O)CCC(=O)OC)C(=O)C(Br)=C2C=C1c1ccc(OC)cc1 (stereo not drawn),7.96
22,CC(=O)Nc1ccc(S(=O)(=O)N2CCN(C(=O)N3CCCCC3)CC2)cc1,13.2
23,CCCCCCCc1c(C)nc(N2CCOCC2)[nH]c1=O,-6.68

row,SMILES,"hERG current change (%, negative = inhibition) at 10uM [%]"
1,OC12Oc3ccccc3C=C1N1CCC2CC1 (stereo not drawn),4.03
2,COc1ccc(CNC(=O)c2oc3ccc(S(=O)(=O)N4CCOCC4)cc3c2C)cc1,7.71
3,Cc1cccc(C)c1NC(=O)C1NC(=O)CC1c1ccccc1 (stereo not drawn),-8.95
4,COc1ccccc1CN(C)C(=O)c1cccc(S(=O)(=O)N2CCN(Cc3ccccc3)CC2)c1,-17.3
5,CC(OC(=O)CNC(=O)c1ccc(Cl)c([N+](=O)[O-])c1)C(=O)NCc1ccco1 (stereo not drawn),-10.1
6,CCN(CC)C(=O)CSc1nc2c(c(-c3cccnc3)c1C#N)CCCC2,-35.8
7,CC1(C)CC(NC(=O)C2CCN(S(=O)(=O)c3ccccc3C(F)(F)F)CC2)CC(C)(C)N1,11.1
8,O=c1c2ccccc2nnn1Cc1ccccc1,35.3
9,C/C=C\C=C\C(=O)Nc1cccc(C2=NOC3(C2)C[C@@H](C(N)=O)N(C(=O)C(c2ccccc2)c2ccccc2)C3)c1 (stereo partly drawn),0.545
10,O=C1NCCN/C1=C\C(=O)c1ccc(Br)cc1,6.85
11,Cc1cc(NC(=O)C2CC(c3ccc(F)cc3)=NO2)no1 (stereo not drawn),-4.27
12,COc1cccc(/C=C2\SC(=S)N(CCC(=O)NNC(=O)c3ccccc3OC)C2=O)c1,18.5
13,Cc1cccc(CN2C(=O)NC(c3ccccc3)(c3ccccc3)C2=O)c1,-32.1
14,Cc1[nH]c(C)c(S(=O)(=O)NCc2ccc(OC(C)C)cc2)c1C(=O)N1CCCC1,11.1
15,C=CCn1c(SCn2nnc3ccccc3c2=O)nnc1-c1ccc(Br)cc1,-62.7
16,O=C(NCc1ccccc1Cl)C(=O)NCC1OCCN1S(=O)(=O)c1ccc(F)cc1 (stereo not drawn),-13.2
17,Cc1nc2nc3c(cn2n1)C(=O)CCC3,-1.49
18,COc1ccc(C(CCNCc2ccc(OC(C)C)cc2)c2ccccc2OC)cc1 (stereo not drawn),-76
19,OC(c1ccccc1)(c1ccccc1)C1CCN(C(=S)NCCc2ccccc2)CC1,16.3
20,O=C(NC1(C(F)(F)F)Oc2ccc(Cl)cc2O1)N1CCC2(CC1)OCCO2 (stereo not drawn),13.2
21,Cc1csc(NC(=O)Cc2ccc(Br)cc2)n1,4.97

# Source: publication PMC4336329 (PLoS ONE, 2015)
